Assay results published in the supplement of paper PMC11417369.
This is one part of the list.

tested on: PfAP2-HC AP2 domain (GST-tagged); assay: gcPBM binding intensity (ln(normalized median fluorescence intensity)); higher = stronger DNA binding
Summary of the method: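 GST-fused DNA-binding domains of P. falciparum, expressed in E. coli, were applied at about 25 μg on average for 1 h to an Agilent 4 × 180k array of primer-extended double-stranded 36-bp intergenic genomic probes and negative controls. Binding intensity is the highest Masliner-normalised natural-log median intensity across replicate spots of either probe orientation, measured with Alexa488 anti-GST antibody and a 488 nm scan.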

Compared with “AAAACATGTTCAACATGTACACAACAGGATGAATAT [XGTACX_site506]”, “AGGAAACAAGAAATGAAGAATCATGTAGAAGGCCCA [GTGCAC_negctrl_site187]” is lower in “gcPBM binding intensity (ln)” value: 9.85 for the first, 9.71 for the second.

Going from “TATATAACCGAGTGCACACACAAAAAAAAAGTGAAC [CACACA_site6806]” to “AATAATATAAATATTACACACTAATTGTATTATAGA [CACACA_site6347]”, the “gcPBM binding intensity (ln)” value falls from 10.2 to 9.72.

Going from “TATTAAATATTGTATACATGCAAATACTAGAAAATT [TGCATGCA_site370]” to “TAAATTAAAAAAAATACACACACACCGACACATATA [CACACA_site9084]”, the “gcPBM binding intensity (ln)” value rises from 9.59 to 10.6.

First: AAAAAGAAGAATAATACACACAAATTACTTTATATA [CACACA_site6984]
Second: TTCGTAACTGATTCAACACACAAAAGGGGGAAAATT [CACACA_site1754]
The “gcPBM binding intensity (ln)” value of the first is higher: 9.87 for the first, 9.72 for the second.

Compared with “ATATATATATATATGTGTACATATATTAAGATATAT [XGTACX_site1065]”, “AATTACAAATATTCATGTACATATTTATAAATACAT [XGTACX_site5430]” is lower in “gcPBM binding intensity (ln)” value: 9.79 for the first, 9.7 for the second.

First: ATATTATAGAAATATACACACATTGTTTTATAGCAT [CACACA_site7177]
Second: TATGTTATATAATATTGTACACAAAATGGTTTCTAT [XGTACX_site7686]
The “gcPBM binding intensity (ln)” value of the first is higher: 9.8 for the first, 9.63 for the second.

Going from “ATATTACGCACAAAAAAAAAAAAAAAAAAAAAAAAA [CACACA_negctrl_site941]” to “AAAATTAAAATTTTCACACAGATATATTTACAATTT [CACACA_site5692]”, the “gcPBM binding intensity (ln)” value rises from 9.1 to 9.63.

Going from “ATGATGTGCTTTAAAAGTACTTAAGTTATATTCTTT [XGTACX_site7127]” to “ATATATATGAAACACACACACAAAAAAAAAAAAAAA [CACACA_site3647]”, the “gcPBM binding intensity (ln)” value rises from 9.7 to 10.3.

Going from “ATAACACAAAATTGTTGTACACGTGTTAATAAGTGA [XGTACX_site4452]” to “TAAAGTTATGCAATAACACACATATACAATACATAT [CACACA_site6698]”, the “gcPBM binding intensity (ln)” value falls from 10.2 to 9.92.

First: AATATTTATATAAATGCATGCTGATACAACAGTCTT [TGCATGCA_site21]
Second: AGGTATGTCTATAAATGTACATATGAGTTCAATTTC [XGTACX_site2244]
The “gcPBM binding intensity (ln)” value of the first is lower: 9.63 for the first, 9.65 for the second.

First: CACAGTGATATAAAAACACACATGAATTCTAATTTC [CACACA_site6884]
Second: CATAAAAATATTAATAAACACACAATCAGATATTGA [CACACA_site9032]
The “gcPBM binding intensity (ln)” value of the first is lower: 9.77 for the first, 10 for the second.

First: AAATATATATAAACAAGTACATATTTAAAAAAAGGA [XGTACX_site2631]
Second: CCCTCCCCATGTTTAGTGCAAAAATATTTGAAATTG [GTGCAC_site9873]
The “gcPBM binding intensity (ln)” value of the first is lower: 9.83 for the first, 10.2 for the second.

Compared with “TGAATAAATATATATACACACATATCTGTATTTATT [CACACA_site4991]”, “TATATATATACCAACACACATACATATATATATATA [CACACA_site1795]” is higher in “gcPBM binding intensity (ln)” value: 9.86 for the first, 9.93 for the second.

Going from “AAATTTGGCAGACACACACACACACGCACACGCACA [CACACA_site6423]” to “TATGAAATTAGAATTACACACAGGAAAATAAAATGC [CACACA_site6822]”, the “gcPBM binding intensity (ln)” value falls from 11.5 to 10.

First: AAAAAAAATCAAATGGGTACTTATTCTTAATAATAT [XGTACX_site3792]
Second: TTTGCGTAGAAATGTGTGCACTGATATTTATAATAA [GTGCAC_site9526]
The “gcPBM binding intensity (ln)” value of the first is lower: 9.46 for the first, 9.84 for the second.

First: TGAACTCATAGGAAAACACACATATGGGTAATATAT [CACACA_site187]
Second: ATTTTCCTTTTACCACGTACACATAAAAACGTTATA [XGTACX_site3595]
The “gcPBM binding intensity (ln)” value of the first is higher: 9.79 for the first, 9.75 for the second.

First: ATCATAAATATAGCAACACACGGATTACATAAAATA [CACACA_site2796]
Second: TTAAAAAAATAATTAACACACACATGTATATCTATA [CACACA_site9026]
The “gcPBM binding intensity (ln)” value of the first is lower: 9.85 for the first, 9.92 for the second.

Compared with “TTGTAATAAATAAAAGTGCAGATATGGTTCCACTAA [GTGCAC_site9942]”, “ATAAATATATTTAAATGTACATAATATATATATATA [XGTACX_site5137]” is higher in “gcPBM binding intensity (ln)” value: 9.53 for the first, 9.65 for the second.

Going from TATATATATTTAAAGGTGCAGATGCCAGTGTATATT to “AATGAACTCACGAGCACACACACACCGATATATATA [CACACA_site4710]”, the “gcPBM binding intensity (ln)” value rises from 9.73 to 11.

First: ATATATACATACAAATTAATTACGAGGAATATATTA [XGTACX_negctrl_site417]
Second: ACATATTCATATGGAAGTACGATAATGTAGTCATAT [XGTACX_site7080]
The “gcPBM binding intensity (ln)” value of the first is lower: 9.69 for the first, 9.72 for the second.

“TATACATATATATACACACACACATATATATATATA [CACACA_site1299]” and “GGAACTTATTTTTATACACACATATGTGCATATTAT [CACACA_site629]” are the same in “gcPBM binding intensity (ln)” value: 10.1 for the first, 10.1 for the second.

First: GTAAAAAAATTAAAAATTAACAAGGAATTAAGTATA [CACACA_negctrl_site1688]
Second: ATAAGAAAATCAAAAAGTACTTTTTACAAAGATAAA [XGTACX_site824]
The “gcPBM binding intensity (ln)” value of the first is higher: 9.64 for the first, 9.6 for the second.

First: ATATACTATATATAATGTACATATATATTATTATGC [XGTACX_site2957]
Second: TAGTTTTTTATATATTGTACAAATAATATATTATAT [XGTACX_site2564]
The “gcPBM binding intensity (ln)” value of the first is higher: 9.72 for the first, 9.66 for the second.

“ATTTTATGATATATTTGTACTTAACATTTGGATATA [XGTACX_site5888]” and AGTGACACCAAAGGGGTGCAATGAAATTAAAAATAT are the same in “gcPBM binding intensity (ln)” value: 9.6 for the first, 9.6 for the second.

First: TTTATTCATTTCTAAAAATATTAAAATAGAATGAAT [CACACA_negctrl_site325]
Second: AAACAAAAAATATATACACACTAAACATAAAAAAAA [CACACA_site4185]
The “gcPBM binding intensity (ln)” value of the first is lower: 9.29 for the first, 9.97 for the second.

Compared with “TAAAAAAAAATAAATGGTACACAATTAAATGTTTAT [XGTACX_site5255]”, “AAAAAAATATATATATATATATATATATATTTATAT [XGTACX_negctrl_site86]” is lower in “gcPBM binding intensity (ln)” value: 9.67 for the first, 9.35 for the second.

First: TCTTTTTTTAATAAAACATGCAATATTATATATGTA [TGCATGCA_site236]
Second: TAAATTCTTTAAAACTTTAAAACAAAAAAAAAAAAA [CACACA_negctrl_site1078]
The “gcPBM binding intensity (ln)” value of the first is higher: 9.55 for the first, 9.11 for the second.

Going from “GTAATTATTAATAAAACATGCGTATAAAATTTTCTC [TGCATGCA_site50]” to “TTTTTAATCTCATATGTATAATATATTTTTATTAAA [XGTACX_negctrl_site236]”, the “gcPBM binding intensity (ln)” value falls from 9.65 to 9.26.

First: AATTTTAGATTTAGCACACATTTTTTTTTTTTTTTT [CACACA_site6105]
Second: TTCAAAGGGAAATTAACACACACATATATATATATA [CACACA_site8777]
The “gcPBM binding intensity (ln)” value of the first is lower: 9.69 for the first, 9.89 for the second.

Going from “TTCAATGCTAATTTATGTACATATGTATATAAAATA [XGTACX_site8335]” to “CCCAAAAAAAATTTATGTACTTATTAAATATATATA [XGTACX_site6455]”, the “gcPBM binding intensity (ln)” value falls from 9.4 to 9.36.

Compared with TTTATATAAATTTAAGTGCAAAATGAACAAGTGAAA, “AAAATATATATTTGTTGTACAATATTAATTATTAAA [XGTACX_site1612]” is lower in “gcPBM binding intensity (ln)” value: 9.79 for the first, 9.54 for the second.

Going from “TGCAAAGGTGAAAGAACACACAAAAAAAAAAAAAAA [CACACA_site4024]” to “CACCATGTTAACAAAGCATGCATCTCTATAGTTTTA [TGCATGCA_site97]”, the “gcPBM binding intensity (ln)” value rises from 9.47 to 9.7.

First: AAAAAAAAAAAAAGAACATGCGACTTTAAGAACTGG [TGCATGCA_site792]
Second: TATGAAAATAAAATATGTACATATTTTAAATGTTAT [XGTACX_site7352]
The “gcPBM binding intensity (ln)” value of the first is lower: 9.56 for the first, 9.69 for the second.

First: CAAATGTGTTCTTCAGGTACAGATACACATTTATGA [XGTACX_site2664]
Second: TAAAAAATTATATATTGTACGAATGCATAAAAAAAA [XGTACX_site4606]
The “gcPBM binding intensity (ln)” value of the first is lower: 9.48 for the first, 9.67 for the second.

Going from “TAAATACATAGATGTACACACATTACAGATGTACAT [CACACA_site4692]” to “ATTTATAAAATTAATGCACACATCAGCATTTATAAA [CACACA_site1025]”, the “gcPBM binding intensity (ln)” value falls from 9.82 to 9.55.

Going from “ATAAAGCACACCGACACACACATATTTATATTTATA [CACACA_site6620]” to “TTGTGTTATCCTTTTTTAGATCAACTATTTTTATTC [CACACA_negctrl_site145]”, the “gcPBM binding intensity (ln)” value falls from 10.8 to 9.77.

Compared with “TATAAAATAAAAAATAAATATCTATATATATATATA [TGCATGCA_negctrl_site351]”, “ATAATTTGTAAAAGGAGTACAAAACCATACTTTTTT [XGTACX_site6076]” is higher in “gcPBM binding intensity (ln)” value: 9.51 for the first, 9.55 for the second.

Going from “AAAGGAAAATTAAAAAGTACACATTTGAAAAAAAAA [XGTACX_site2724]” to “ATGTATTTAATAAGAACACACATATATTTAATTTAA [CACACA_site5606]”, the “gcPBM binding intensity (ln)” value rises from 9.75 to 9.76.

First: TTTTTTTTTTTAAGTTCACACATAAATTCGATTTAC [CACACA_site5057]
Second: ACCGTTTTTGTGTAATGTACAAAATTTCTGACAGTG [XGTACX_site4999]
The “gcPBM binding intensity (ln)” value of the first is lower: 9.56 for the first, 9.63 for the second.

Going from “ATAAGAAATGTAACTTGTACATAAGGATATATATTT [XGTACX_site236]” to “TAATAATAAAAAAATAGTACATAAATAAAAATAATA [XGTACX_site4774]”, the “gcPBM binding intensity (ln)” value falls from 9.81 to 9.74.

First: CATTTATATAAATACACACACACAAAAAAAAAAAAA [CACACA_site5459]
Second: TTTATACATTTATATTGTACTAATTCGATTTTATAT [XGTACX_site5424]
The “gcPBM binding intensity (ln)” value of the first is higher: 10.2 for the first, 9.93 for the second.

Going from “AATGATCATATATACACACACACAAAAAAAAAAAAA [CACACA_site4009]” to “GGGAGGATAGTTCACAGTACCCAGGAAATCTACGGA [XGTACX_site2553]”, the “gcPBM binding intensity (ln)” value falls from 11.2 to 9.36.

Going from “GGTTCATAATATGGTTGTACATAAATATATATATAT [XGTACX_site7583]” to “ATATATATGTATAATCGTACAGTTAACGTATTCTTA [XGTACX_site5649]”, the “gcPBM binding intensity (ln)” value falls from 9.86 to 9.8.

First: AAACAGATAAATAAAAGTACACATTAAAAGGTAGCA [XGTACX_site4150]
Second: GGATTTTAATGAACACGTACATAAAATTAAATAAAT [XGTACX_site7023]
The “gcPBM binding intensity (ln)” value of the first is higher: 10 for the first, 9.54 for the second.

With “TAATTAATTTCTTTACGTACATAATTAATATATATA [XGTACX_site7372]” the “gcPBM binding intensity (ln)” value was 9.44.
